# Assay results taken from PubChem BioAssay AID488969 (Vanderbilt High Throughput Screening Facility, 2010).
# Over roughly 110,000 compounds, “z-score” has its median near -0.1; the highest 2% begin near 2. The list shows a part of the results. Activity calls are given as the source filed them.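 Rule for the calls: active = z-score in the third read window above 3 or below -3; inactive = the rest.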
# Target: Metabotropic glutamate receptor 8 (Rattus norvegicus) (UniProt P70579)
# Test: mGluR8 Gi/Go-coupled signaling modulation – cell-based, rat, thallium flux, HTS, primary screen (AID 488969)
# Conditions: HEK293 rat mGluR8, GIRK (G protein-gated inwardly rectifying potassium channel) thallium flux, FluoZin2; at 10 µM; stronger effect = higher value; submaximal glutamate (EC20) added with thallium
# UniProt P70579, sequence (P70579 whole entry, looked up): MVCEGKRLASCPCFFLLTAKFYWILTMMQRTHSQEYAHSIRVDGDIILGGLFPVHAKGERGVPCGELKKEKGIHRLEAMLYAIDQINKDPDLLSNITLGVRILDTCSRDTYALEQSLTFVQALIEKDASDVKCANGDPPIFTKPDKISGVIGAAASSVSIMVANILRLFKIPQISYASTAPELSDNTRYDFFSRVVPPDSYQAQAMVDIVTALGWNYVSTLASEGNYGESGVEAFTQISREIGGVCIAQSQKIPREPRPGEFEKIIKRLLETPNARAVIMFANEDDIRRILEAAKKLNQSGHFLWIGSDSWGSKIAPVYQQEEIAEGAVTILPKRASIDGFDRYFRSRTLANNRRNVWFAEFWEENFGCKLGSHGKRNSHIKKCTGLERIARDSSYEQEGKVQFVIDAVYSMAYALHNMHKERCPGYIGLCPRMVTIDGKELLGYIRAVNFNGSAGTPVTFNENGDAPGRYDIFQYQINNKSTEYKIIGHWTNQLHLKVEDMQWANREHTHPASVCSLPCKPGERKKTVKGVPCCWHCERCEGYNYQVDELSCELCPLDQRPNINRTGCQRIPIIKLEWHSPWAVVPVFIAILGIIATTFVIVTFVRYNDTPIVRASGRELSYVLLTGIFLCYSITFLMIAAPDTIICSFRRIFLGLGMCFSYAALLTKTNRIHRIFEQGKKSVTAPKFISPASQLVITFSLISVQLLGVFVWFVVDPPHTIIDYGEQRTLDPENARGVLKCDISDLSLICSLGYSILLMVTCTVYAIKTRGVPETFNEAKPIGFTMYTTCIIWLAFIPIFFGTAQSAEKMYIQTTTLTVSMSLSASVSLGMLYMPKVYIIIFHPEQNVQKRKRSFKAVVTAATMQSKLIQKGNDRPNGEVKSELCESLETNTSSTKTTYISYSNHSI
row,Compound,z-score
1,CCOC(=O)c1ccc(N2C(=O)CC(NC3CCN(C(=O)c4ccc(F)cc4)CC3)C2=O)cc1 (configuration not stated),-0.0183
2,Cc1cc(-c2n[nH]c(=S)n2/N=C/c2ccc(C)s2)n[nH]1,-0.0648
3,COc1ccc(CCNC2CC(=O)N(CCc3ccc(OC)c(OC)c3)C2=O)cc1 (configuration not stated),0.274
4,COc1ccccc1/C=C/C=C1\Oc2c(ccc(O)c2CN2CCN(CCO)CC2)C1=O,-1.5
5,O=C(O)[C@H](CSCc1ccccc1)NS(=O)(=O)c1ccc(F)cc1,-0.283
6,CNC(=S)N/N=C(\C)c1ccc(N2CCOCC2)cc1,0.456
7,CCCc1cc(=O)n2[nH]c(-c3ccccc3)cc2n1,0.844
8,O=C(OCc1nc2ccccc2s1)[C@@H]1CCCN1S(=O)(=O)c1ccccc1F,-0.557
9,COc1ccc(C(C(=O)NC2CCCC2)N(C(=O)c2snc(-c3ccc(F)cc3)c2N)c2ccc(F)cc2)cc1 (configuration not stated),0.297
10,Cc1nn(-c2ccc(C(=O)O)cc2)c(N)c1-c1ccccc1,1.39
11,N#C/C(=C\c1cccs1)C(=O)NCc1ccccc1,0.407
12,COc1ccc(CN(C)c2ncnc(N)n2)cc1,0.445
13,Cc1cc(C)cc(NC(=S)N2CCN(c3ncccn3)CC2)c1,0.098
14,O=C(Nc1nc2c(s1)CCCC2)Oc1ccccc1,-0.198
15,Cc1cc(=O)oc(C)c1C(=O)NCc1ccco1,-0.0307
16,COc1ccc(-c2cc(-c3ccccc3)nc(-c3ccc4c(c3)NC(=O)CO4)c2)cc1,-0.0947
17,C=CCNC(=O)C(C)N1C(=O)c2ccccc2C1=O (configuration not stated),0.26
18,O=C(NC(NC(=S)Nc1ccccc1C(=O)O)C(Cl)(Cl)Cl)c1cccc([N+](=O)[O-])c1 (configuration not stated),-0.0684
19,O=C1NC(c2cccs2)Nc2ccccc21 (configuration not stated),-0.413
20,Cc1ccc(S(=O)(=O)NC(CC(C)C)C(=O)Oc2ccc3c4c(c(=O)oc3c2)CCC4)cc1 (configuration not stated),0.186
21,CN(C)CC(O)COc1ccc(-c2ccc(C#N)cc2)cc1 (configuration not stated),2.48
22,Cc1ccc(NC(=O)COc2ccc(/C=C3/SC(=Nc4ccccc4)N(Cc4cccnc4)C3=O)cc2)cc1,-0.121

row,Compound,z-score
1,O=C(NCc1ccccn1)c1ccc(N2CCCC2=O)cc1,-0.553
2,Cc1ccc(S(=O)(=O)N(C)CCCC(=O)Nc2ccncc2)cc1,0.255
3,O=C(NNCC(O)COc1ccccc1)c1ccccc1 (configuration not stated),0.0495
4,O=C1CC(c2ccco2)CC2=C1C(c1ccccc1)n1nc(C(F)(F)F)nc1N2 (configuration not stated),-0.367
5,NC(=O)c1ccc(OCC(F)(F)C(F)(F)C(F)(F)C(F)(F)C(F)(F)C(F)F)cc1,0.969
6,COc1ccc(C(=O)CC(Nc2ccc([N+](=O)[O-])cc2)c2ccc(OC)cc2)cc1 (configuration not stated),-0.119
7,C/C(N)=C(/C#N)C(=O)CSc1nnc(-c2ccc3c(c2)OCO3)o1,-0.316
8,CCOC(=O)N1CCC(N2Cc3cccc(C(=O)NC(C)c4ccc5c(c4)OCCO5)c3C2=O)CC1 (configuration not stated),-0.941
9,CC[C@@H](C(=O)n1nc(C)cc1C)[C@H](NS(=O)(=O)c1ccc(C)cc1)c1ccccc1,-0.105
10,O=C(CSc1nnc2n(C3CCCC3)c(=O)c3ccccc3n12)N1CCCCCC1,0.0381
11,Cc1nn(Cc2ccccc2Cl)c(C)c1NC(=O)c1nc2ncccn2n1,-0.269
12,CCc1nnc(NC(=O)c2cc(-c3ccccc3)nn2-c2ccccc2)s1,0.27
13,CSc1nc(-c2ccccc2)nc(N2CCCC2)c1C(C)=O,-0.0558
14,COc1ccc(N(CC(=O)NCc2ccco2)S(=O)(=O)c2c(C)nn(C)c2C)cc1,-0.0923
15,CCOC(=O)COc1ccc(S(=O)(=O)NCc2cccnc2)cc1,0.014
16,CCNC(=O)c1sc(-c2ccccc2)nc1C,-0.491
17,CC(OC(=O)C1=Cc2ccccc2OC1)C(=O)NC1CCCC1 (configuration not stated),-0.171
18,CCn1c(SCC(=O)N2CCCc3ccccc32)nc2ccccc2c1=O,-1.52
19,O=C1Nc2ccccc2C12NCCc1c2[nH]c2ccccc12 (configuration not stated),-0.534
20,Cc1c(Cl)cccc1NC(=O)C1NC(=O)CC1c1ccccc1 (configuration not stated),-0.0859
21,CC1(C)C(c2cccs2)=NC(c2ccccc2)N1O (configuration not stated),-0.0214
22,COc1cccc(NC(=S)/C(=C(\[O-])c2ccc(C)c([N+](=O)[O-])c2)[n+]2ccccc2)c1,0.00281

row,Compound,z-score
1,Cc1ccc(NC(=O)Cn2nc(-c3ccccc3)nc2-c2ccccc2)c(C)c1,-0.261
2,O=C(Cn1nnc(-c2ccccc2)n1)Nc1ccc2c(c1)OCO2,0.199
3,COc1ccc(NC(=O)c2ccco2)cc1NC(=O)c1cccc(OC(C)C)c1,-1.75
4,O=C(NNS(=O)(=O)c1cc(Cl)cc(Cl)c1)c1sccc1-n1cccc1,1.93
5,Cc1ccc(S(=O)(=O)N(C)CC(=O)O/N=C(\N)c2ccccn2)cc1,-0.423
6,Fc1ccccc1-c1csc(=Nc2cccnc2)n1CCCn1ccnc1,-1.73
7,CS(=O)(=O)N(Cc1nnc(-c2cccs2)o1)c1ccc(Cl)cc1F,-0.694
8,CCOc1ccc(S(=O)(=O)n2nnc3ccccc32)cc1C,-0.695
9,COC(=O)[C@H](CCSC)NC(=O)Nc1ccc(OC)cc1OC,-0.209
10,COc1ccc(-c2cc(C(F)(F)F)nc(SCCC(=O)N3CCN4CCCC4C3)n2)cc1 (configuration not stated),0.152
11,O=C(CCC(=O)c1ccc(F)cc1)Nc1cccnc1,0.386
12,Clc1cccc(Cl)c1-c1nnc2ccc(N3CCOCC3)nn12,-1.29
13,O=C(COC(=O)COc1ccc(Br)cc1)NCCC1=CCCCC1,-0.252
14,Cc1[nH]nc2nc3c(c(OC(=O)c4ccccc4)c12)c(=O)n(C)c(=O)n3C,-0.408
15,O=c1nc(-c2ccccc2)n(-c2ccc(Cl)cc2)[nH]1,-0.238
16,CC1CC(C)CN(C(=O)Cn2c(=O)n(CCCCC(=O)NC3CCCC3)c(=O)c3ccccc32)C1 (configuration not stated),-1.26
17,COc1ccc(-n2c(=S)[nH]c3cc(C(=O)NCc4ccco4)ccc3c2=O)c(OC)c1,0.0806
18,Cc1c(C)[n+](=O)c2c(n1[O-])CCC2,active: 14.6
19,Cc1ccccc1N=C(NOCc1ccc(Cl)cc1Cl)c1nonc1N,-0.307
20,COc1ccc(N2C(=O)CC(n3cnc4ccccc43)C2=O)cc1 (configuration not stated),1.09
21,CC1(C)CC(=O)N(CC(=O)NC2CCCC2)c2ccccc2S1(=O)=O,-0.29
22,CCCCNS(=O)(=O)C1CCS(=O)(=O)C1 (configuration not stated),-0.314

row,Compound,z-score
1,CCN1CCN(C(=O)CN(c2cc(OC)ccc2OC)S(C)(=O)=O)CC1,-0.0515
2,O=S(=O)(c1cccc(S(=O)(=O)N2CCC(N3CCCCC3)CC2)c1)N1CCOCC1,0.0498
3,COc1ccc2cc(C(=O)O)ccc2c1,0.101
4,Cc1ccc(C)n1-c1ccc2c(c1)COC2=O,-0.0138
5,O=C(OCC(=O)N1CCN(C(=O)c2ccco2)CC1)c1sc2ccccc2c1Cl,-0.258
6,N#C/C(=C\c1ccc(N2CCCCC2)o1)C(=O)Nc1cccc(Br)c1,-0.473
7,Fc1cccc(NC(=S)NCC(c2cccnc2)N2CCOCC2)c1 (configuration not stated),-0.0414
8,COC(=O)/C=c1/s/c(=C(\C#N)C(=O)NCc2ccco2)n(-c2ccccc2)c1=O,-0.539
9,Cc1ccc(C)c(S(=O)(=O)N2CC(=O)Nc3ccccc32)c1,0.126
10,Cc1ccccc1Cn1c(=O)n(CCC(=O)NCc2ccc3c(c2)OCO3)c(=O)c2ccccc21,-0.0654
11,NS(=O)(=O)c1ccc(CCNc2nc3c(-c4cccc(F)c4)nnn3c3ccccc23)cc1,0.0566
12,CCOC(=O)C1CCCN(CC(=O)NC2=Nc3ccccc3N=C(C)C2c2ccccc2)C1 (configuration not stated),0.427
13,O=S(=O)(Cc1cc(Sc2ccc(Cl)cc2)nc(-c2ccccc2)n1)c1ccccc1,0.0909
14,C/C(=N\OC(=O)NC(C)C)c1sc(-c2ccccc2)nc1C,-1.52
15,COc1cccc(COc2cc3ccccc3nc2C)c1,-0.215
16,Cc1sc(NC(=O)c2sc3nc4c(C)cccc4cc3c2N)c(C#N)c1C,2.37
17,Clc1ccc2nc(CN3CCCCCC3)cn2c1,0.0366
18,CN1CCc2c(c3ccccc3n2Cc2ccccc2)C1,1.56
19,CCCCOC1(c2ccccc2)OC(=O)c2ccccc21 (configuration not stated),-0.271
20,O=C(/C=C/c1ccc(Cl)cc1Cl)N(Cc1ccc(Cl)cc1)C1CCS(=O)(=O)C1 (configuration not stated),-0.159
21,COc1ccc(NC(=O)C2CC(=O)n3cnnc3S2)cc1 (configuration not stated),-0.313
22,CCOC(=O)c1ccc(NC(=O)CCNC(=O)c2ccc([N+](=O)[O-])cc2)cc1,-0.327

row,Compound,z-score
1,COc1ccc(C2c3sc(=O)[nH]c3SC3C(=O)N(c4ccccc4)C(=O)C32)cc1 (configuration not stated),-1.53
2,CCOC(=O)COc1cc(=O)n(CC)c2ccccc12,-0.407
3,COCCn1nnnc1C(c1ccccc1Cl)N1CCN(c2ccccc2OC)CC1 (configuration not stated),0.107
4,O=C(Cn1cnc2c(nnn2Cc2ccccc2)c1=O)c1ccc(Cl)cc1,0.494
5,CCNC(=O)CC1C(=O)N(c2ccc(C)cc2)C(=O)N1Cc1ccccn1 (configuration not stated),-0.176
6,COc1ccc(C(C)=O)cc1COc1ccc(-n2cnnn2)cc1,0.111
7,COc1ccc(CCC(C)NC2C3CC4CC(C3)CC2C4)cc1 (configuration not stated),1.2
8,CC(C)Cn1c(N)c(C(=O)COC(=O)C2=COCCO2)c(=O)n(C)c1=O,-0.345
9,COc1ccc(CCN2C(=O)NC(NC(=O)C(C)(C)C)(C(F)(F)F)C2=O)cc1OC (configuration not stated),0.191
10,CC(C)(C)n1ncc2c(=O)n(CC(=O)NCCc3ccccc3)cnc21,0.00527
11,Cc1ccc(NC(=O)COC(=O)Cc2ccsc2)cc1S(=O)(=O)N1CCOCC1,-0.186
12,Cn1c(SCC(=O)c2ccccc2F)nnc1C1CC1,-0.74
13,COc1ccc(-c2cccc(C(=O)Nc3ccccc3C)c2)cc1,-0.124
14,COc1cc(Cl)c(S(=O)(=O)NCc2cccnc2)cc1Cl,-0.443
15,CC(C)NC(=O)c1onc(CSc2ccc(C(C)C)cc2)c1C(=O)O,-0.825
16,COc1ccc(NC(=O)NCCN2CCc3ccccc3C2)cc1,0.0313
17,CCCn1c(N)c(C(=O)CSc2nc(C)cs2)c(=O)[nH]c1=O,-0.279
18,O=C(c1ccc(-c2ccccc2)cc1)c1ccccc1C(=O)N1CCOCC1,-0.412
19,COCCNc1cc(C)nc2c(-c3ccccc3OC)c(C)nn12,0.529
